From the supplement of paper PMC10126150 come the findings set out here.

The test system of the data set is ATP. As to the kind of experiment: switch fluorescence ratio, 500 uM ATP over buffer (Cy3 cluster intensity, sum of 5 cycles each) (fold (ratio)); higher = stronger signal-on switching upon ATP binding; sequences stand for … in TCGTCGGCAGCGTCAGATGTGTATAAGAGACAGTTTTTTTTTTTTTTTTTTTTTTTTT…TC. To be noted: aptamer strand: ATP DNA aptamer (quencher-CACCTGGGGGAGTATTGCGGAGGAAGG + anchor), 100 nM annealed; ATP concentration: 500 uM; one replicate. Put shortly:
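Imaging in selection buffer was followed by imaging after 15 min with 500 uM ATP at 22 °C, for Cy3-labelled switching-strand clusters annealed to 100 nM quencher-labelled ATP aptamer on a modified Illumina MiSeq flow-cell. Five of these buffer/ATP cycles ran, separated by NaOH stripping and re-annealing. The fluorescence ratio per cluster is summed target-cycle over summed buffer-cycle Cy3 intensity, averaged per switch-domain sequence; clusters outside 100-1000 RFU were removed.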

Values marked as one replicate rest on one cluster of the flow cell; about a third of the high ones do not repeat.
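Further: ATP exposure 15 min at 22 °C before imaging.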

For the sequence TATGCCGCTT, the switch fluorescence ratio was determined as 1. In the case of GGTGACTCCA, the switch fluorescence ratio came out at 0.988. Turning to AGGATTCTTC, the switch fluorescence ratio amounted to 0.961.

For CCCGTCGAGC, the switch fluorescence ratio was found to be 1.11. Then CTGCAGGGGC, with 1.23. On to ACTTCAATGG, for which the switch fluorescence ratio was 0.992. In the case of CACTAAGGAT, the switch fluorescence ratio was 1.27.

TACTCTGACG: the switch fluorescence ratio amounted to 1.03. CGTCGGCAGA: the switch fluorescence ratio is 1.09.

With TAAGACTGCT, the switch fluorescence ratio was found to be 0.994. Regarding TGACCTAGCT, the switch fluorescence ratio stood at 1.05. On to GACATAGTTC, for which the switch fluorescence ratio came out at 1.03. With ACCTTGAAGT, the switch fluorescence ratio worked out at 1.06. Consider AACAAAATGG, for which the switch fluorescence ratio is 1.01.

As to ACTAGCT, the switch fluorescence ratio is 0.991. TAAGTACGTT: the switch fluorescence ratio worked out at 1.11. Then TGCTGCTTAC, with 1.92; and CGTGTACAA, with 1.03.

As to CATATAGCCT, the switch fluorescence ratio was 1.07. Consider CGCAGACTCA, for which the switch fluorescence ratio is 4.7. Consider GTCATATTAG, for which the switch fluorescence ratio is 0.993. Turning to GGTGAGGTTT, the switch fluorescence ratio stood at 0.983. Then CCAATAACT, with 1.04; and CGGTGCTCAT, with 0.991. For the sequence TGTTGCAGA, the switch fluorescence ratio is 0.977.

On to ACTTTGTCGT, for which the switch fluorescence ratio is 0.95. As to CCGAATCGGC, the switch fluorescence ratio is 1.18. To TTAATTCAGC belongs 0.983; to TGCGGCCCCC, 1.01; to TGATCGTAAC, 1.07. As for TTCAGAGTCT, the switch fluorescence ratio stood at 1.07. On to ATGTCAGTAA, for which the switch fluorescence ratio amounted to 0.98. GCGGTGAGCT: the switch fluorescence ratio came to 0.981. Then TTCGTGTGTA, with 1.01. For TTGGGCTTTA, the switch fluorescence ratio amounted to 1.04. To TGGATATTCT belongs 0.969. With CTTTGGTAAA, the switch fluorescence ratio is 1.01. To CATTCGGACA belongs 1.06.

With ATTGAACCAG, the switch fluorescence ratio was 1.02.

On to ATGCGATGGA, for which the switch fluorescence ratio came to 1.05.

AAGTGTATGT: the switch fluorescence ratio stood at 0.993. Turning to GGTTGAACGA, the switch fluorescence ratio came out at 1.02. As to GCGCATTAAT, the switch fluorescence ratio was determined as 1.03. Consider AGATCTGTTT, for which the switch fluorescence ratio is 0.976. Consider AGGATACGAG, for which the switch fluorescence ratio was found to be 1.09. For AATTTTCCAG, the switch fluorescence ratio is 0.968.

As for AGAGGTAGCG, the switch fluorescence ratio stood at 1.04. To CGCGACAAGT belongs 0.995; to TTCCGTGATA, 3.29; to AAACGCCCCA, 1.05. Consider GCAGGTGGGT, for which the switch fluorescence ratio amounted to 1.26. To TGTGAGGATA belongs 0.995; to AATGGCCTCG, 0.964; to GAGCGTTTTT, 1.03. GCACCTACTA: the switch fluorescence ratio turned out to be 1.32. Take ATATTAAAGG: the switch fluorescence ratio was 0.953.

Consider GCAAAACCTT, for which the switch fluorescence ratio is 1.54. With TAAGTGGTAT, the switch fluorescence ratio worked out at 0.948. For the sequence ATTTCCCTGC, the switch fluorescence ratio amounted to 1.05.

Take GCAGTTTGTC: the switch fluorescence ratio was 0.87. Consider AATATTAGAG, for which the switch fluorescence ratio was 0.956.

Consider TGGAAGCTTT, for which the switch fluorescence ratio came to 1.02. To AGTCGTGGCG belongs 1; to AATGACACAT, 1.02; to ATATGGTGT, 0.997. Then CTTTAAGTAA, with 1.03; and ATGGGGGTCT, with 0.967.
